In PMC9911399, “Two distinct binding modes provide the RNA-binding protein RbFox with extraordinary sequence specificity”:
Numbering of substitutions follows the chain as printed; changes in the protein carry UniProt numbers. The list shows a part of the results.

T1: RBFOX1 RRM (Homo sapiens, UniProt Q9NWB1 109-208)
T1 sequence: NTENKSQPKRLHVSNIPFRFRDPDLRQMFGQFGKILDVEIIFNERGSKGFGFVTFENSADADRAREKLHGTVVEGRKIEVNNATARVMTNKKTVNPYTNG

B1: CAGGACA (DNA:RNA)
RNA: GGGAGACCGGAAUUCAGAUUGUCCCAGGACAUUAAAUCCCGUCGUAGCCACCA
DNA 1: CAATCTGAATTCCGGTCTCCC
DNA 2: TGGTGGCTACGACGGGATT
B2: CGGAAGG (DNA:RNA)
RNA: B1 RNA with A26G, G28A, C30G, A31G
DNA 1: CAATCTGAATTCCGGTCTCCC
DNA 2: TGGTGGCTACGACGGGATT
B3: UGCGCUU (DNA:RNA)
RNA: B1 RNA with C25U, A26G, G27C, A29C, C30U, A31U
DNA 1: CAATCTGAATTCCGGTCTCCC
DNA 2: TGGTGGCTACGACGGGATT
B4: UGUCUUG (DNA:RNA)
RNA: GGGAGACCGGAAUUCAGAUUGUCCUGUCUUGUUAAAUCCCGUCGUAGCCACCA
DNA 1: CAATCTGAATTCCGGTCTCCC
DNA 2: TGGTGGCTACGACGGGATT
B5: AAGCCGA (DNA:RNA)
RNA: B1 RNA with C25A, G28C, A29C, C30G
DNA 1: CAATCTGAATTCCGGTCTCCC
DNA 2: TGGTGGCTACGACGGGATT
B6: CAACUUG (DNA:RNA)
RNA: B4 RNA with U25C, G26A, U27A
DNA 1: CAATCTGAATTCCGGTCTCCC
DNA 2: TGGTGGCTACGACGGGATT
B7: GGUCAAG (DNA:RNA)
RNA: B4 RNA with U25G, U29A, U30A
DNA 1: CAATCTGAATTCCGGTCTCCC
DNA 2: TGGTGGCTACGACGGGATT
B8: AGCAUGC (DNA:RNA)
RNA: B4 RNA with U25A, U27C, C28A, U30G, G31C
DNA 1: CAATCTGAATTCCGGTCTCCC
DNA 2: TGGTGGCTACGACGGGATT
B9: CCUAGAG (DNA:RNA)
RNA: B4 RNA with U25C, G26C, C28A, U29G, U30A
DNA 1: CAATCTGAATTCCGGTCTCCC
DNA 2: TGGTGGCTACGACGGGATT
B10: GUAGAUC (DNA:RNA)
RNA: B1 RNA with C25G, A26U, G27A, C30U, A31C
DNA 1: CAATCTGAATTCCGGTCTCCC
DNA 2: TGGTGGCTACGACGGGATT
B11: AGUUAUG (DNA:RNA)
RNA: B4 RNA with U25A, C28U, U29A
DNA 1: CAATCTGAATTCCGGTCTCCC
DNA 2: TGGTGGCTACGACGGGATT
B12: GACGCUA (DNA:RNA)
RNA: B1 RNA with C25G, G27C, A29C, C30U
DNA 1: CAATCTGAATTCCGGTCTCCC
DNA 2: TGGTGGCTACGACGGGATT
B13: AUGUGUU (DNA:RNA)
RNA: B1 RNA with C25A, A26U, G28U, A29G, C30U, A31U
DNA 1: CAATCTGAATTCCGGTCTCCC
DNA 2: TGGTGGCTACGACGGGATT
B14: CUUUGUA (DNA:RNA)
RNA: B1 RNA with A26U, G27U, G28U, A29G, C30U
DNA 1: CAATCTGAATTCCGGTCTCCC
DNA 2: TGGTGGCTACGACGGGATT
B15: AAACUGC (DNA:RNA)
RNA: B4 RNA with U25A, G26A, U27A, U30G, G31C
DNA 1: CAATCTGAATTCCGGTCTCCC
DNA 2: TGGTGGCTACGACGGGATT
B16: AUUACUA (DNA:RNA)
RNA: B4 RNA with U25A, G26U, C28A, U29C, G31A
DNA 1: CAATCTGAATTCCGGTCTCCC
DNA 2: TGGTGGCTACGACGGGATT
B17: GCCCCAC (DNA:RNA)
RNA: B4 RNA with U25G, G26C, U27C, U29C, U30A, G31C
DNA 1: CAATCTGAATTCCGGTCTCCC
DNA 2: TGGTGGCTACGACGGGATT
B18: CUGAUAG (DNA:RNA)
RNA: B1 RNA with A26U, G28A, A29U, C30A, A31G
DNA 1: CAATCTGAATTCCGGTCTCCC
DNA 2: TGGTGGCTACGACGGGATT
B19: UCCCAGC (DNA:RNA)
RNA: B4 RNA with G26C, U27C, U29A, U30G, G31C
DNA 1: CAATCTGAATTCCGGTCTCCC
DNA 2: TGGTGGCTACGACGGGATT
B20: AGCCCCC (DNA:RNA)
RNA: B4 RNA with U25A, U27C, U29C, U30C, G31C
DNA 1: CAATCTGAATTCCGGTCTCCC
DNA 2: TGGTGGCTACGACGGGATT
B21: CGGUGCA (DNA:RNA)
RNA: B1 RNA with A26G, G28U, A29G
DNA 1: CAATCTGAATTCCGGTCTCCC
DNA 2: TGGTGGCTACGACGGGATT
B22: CUGAGGG (DNA:RNA)
RNA: B1 RNA with A26U, G28A, A29G, C30G, A31G
DNA 1: CAATCTGAATTCCGGTCTCCC
DNA 2: TGGTGGCTACGACGGGATT
B23: CAGAUCG (DNA:RNA)
RNA: B1 RNA with G28A, A29U, A31G
DNA 1: CAATCTGAATTCCGGTCTCCC
DNA 2: TGGTGGCTACGACGGGATT
B24: AACACGC (DNA:RNA)
RNA: B1 RNA with C25A, G27C, G28A, A29C, C30G, A31C
DNA 1: CAATCTGAATTCCGGTCTCCC
DNA 2: TGGTGGCTACGACGGGATT
B25: GUAUCUA (DNA:RNA)
RNA: B1 RNA with C25G, A26U, G27A, G28U, A29C, C30U
DNA 1: CAATCTGAATTCCGGTCTCCC
DNA 2: TGGTGGCTACGACGGGATT
B26: AACUUCA (DNA:RNA)
RNA: B1 RNA with C25A, G27C, G28U, A29U
DNA 1: CAATCTGAATTCCGGTCTCCC
DNA 2: TGGTGGCTACGACGGGATT
B27: UCUCACG (DNA:RNA)
RNA: B4 RNA with G26C, U29A, U30C
DNA 1: CAATCTGAATTCCGGTCTCCC
DNA 2: TGGTGGCTACGACGGGATT
B28: AAUACCC (DNA:RNA)
RNA: B1 RNA with C25A, G27U, G28A, A29C, A31C
DNA 1: CAATCTGAATTCCGGTCTCCC
DNA 2: TGGTGGCTACGACGGGATT
B29: AGACCCG (DNA:RNA)
RNA: B4 RNA with U25A, U27A, U29C, U30C
DNA 1: CAATCTGAATTCCGGTCTCCC
DNA 2: TGGTGGCTACGACGGGATT
B30: GCAGAGU (DNA:RNA)
RNA: B1 RNA with C25G, A26C, G27A, C30G, A31U
DNA 1: CAATCTGAATTCCGGTCTCCC
DNA 2: TGGTGGCTACGACGGGATT
B31: CGAACAA (DNA:RNA)
RNA: B1 RNA with A26G, G27A, G28A, A29C, C30A
DNA 1: CAATCTGAATTCCGGTCTCCC
DNA 2: TGGTGGCTACGACGGGATT

Each binder was assayed against T1, RBFOX1 RRM (assay: EMSA; HiTS-Eq, 1 nM pool, 10 min; buffer printed only for the single-RNA assays: 10 mM Tris pH 7.5, 150 mM NaCl, 3.4 mM EDTA, 0.001% NP-40, 30 C). Conditions: tags: His6 N-terminal (pET28a); label: 5' 32P.
Outline: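 Purified RbFox RRM, wild type or mutant, was incubated for 10 min in 50 µL with 1 nM of a 5′-radiolabelled RNA pool carrying 7 randomized nucleotides, whose flanks were annealed to DNA oligonucleotides, over a series of increasing protein concentrations. Unbound RNA was resolved on 8% native PAGE, cut out, reverse-transcribed, barcoded by PCR and sequenced on an Illumina HiSeq 2500. Relative association constants were derived from changes in read counts for each RNA species versus the control reaction and normalised to the cognate motif.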

Binder | binding signal
B1 | 0.00328 KA relative to UGCAUGU
B2 | 0.00994 KA relative to UGCAUGU
B3 | 0.0163 KA relative to UGCAUGU
B4 | 0.0447 KA relative to UGCAUGU
B5 | 0.00329 KA relative to UGCAUGU
B6 | 0.00743 KA relative to UGCAUGU
B7 | 0.00421 KA relative to UGCAUGU
B8 | 0.888 KA relative to UGCAUGU
B9 | 0.00564 KA relative to UGCAUGU
B10 | 0.012 KA relative to UGCAUGU
B11 | 0.0145 KA relative to UGCAUGU
B12 | 0.0104 KA relative to UGCAUGU
B13 | 0.0112 KA relative to UGCAUGU
B14 | 0.00681 KA relative to UGCAUGU
B15 | 0.00534 KA relative to UGCAUGU
B16 | 0.00403 KA relative to UGCAUGU

Binder | binding signal
B17 | 0.00195 KA relative to UGCAUGU
B18 | 0.0183 KA relative to UGCAUGU
B19 | 0.00189 KA relative to UGCAUGU
B20 | 0.00607 KA relative to UGCAUGU
B21 | 0.0194 KA relative to UGCAUGU
B22 | 0.00644 KA relative to UGCAUGU
B23 | 0.013 KA relative to UGCAUGU
B24 | 0.00199 KA relative to UGCAUGU
B25 | 0.00772 KA relative to UGCAUGU
B26 | 0.00242 KA relative to UGCAUGU
B27 | 0.00402 KA relative to UGCAUGU
B28 | 0.000331 KA relative to UGCAUGU
B29 | 0.00232 KA relative to UGCAUGU
B30 | 0.0129 KA relative to UGCAUGU
B31 | 0.00117 KA relative to UGCAUGU
